# The whole screen tested about 350,000 compounds, of which about 31,000 (8.9%) were called active. The shares of active, inactive and inconclusive entries below differ from those in the screen. Calls follow the shape of the dose curve; as a rule, active = well fitted inhibition curve with a large enough effect; inconclusive = small, poorly fitted or top-dose-only effect; inactive = no such curve, though single readings can be large or run the other way. Potencies of inconclusive entries are doubtful fits and often do not repeat.
# Molecular target: Histone-lysine N-methyltransferase EHMT2 (Homo sapiens) (UniProt Q96KQ7)
# Test: qHTS Assay for Inhibitors of Histone Lysine Methyltransferase G9a; also: nearly all actives have a fitted effect of over 75% in size
# Details: G9a H3K9 monomethylation, AlphaScreen, 2 h; activity, negative = inhibition: at 59 µM (top of the series) unless noted
# Procedure, shortened: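 AlphaScreen read-out: biotin-H3K9 peptide (500 nM) methylation by 20 nM enzyme with 20 uM SAM, 2 h at room temperature after 15 min compound preincubation; anti-monomethyl H3K9 antibody plus donor/acceptor beads, 10 min dark.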
# % is scaled to controls: 0 for no effect and ±100 for the full control effect; potency is read from the fitted curve at half-maximal effect; tags tell the direction and shape of the fitted curve.
# Sequence of UniProt Q96KQ7 (Q96KQ7 whole entry, looked up): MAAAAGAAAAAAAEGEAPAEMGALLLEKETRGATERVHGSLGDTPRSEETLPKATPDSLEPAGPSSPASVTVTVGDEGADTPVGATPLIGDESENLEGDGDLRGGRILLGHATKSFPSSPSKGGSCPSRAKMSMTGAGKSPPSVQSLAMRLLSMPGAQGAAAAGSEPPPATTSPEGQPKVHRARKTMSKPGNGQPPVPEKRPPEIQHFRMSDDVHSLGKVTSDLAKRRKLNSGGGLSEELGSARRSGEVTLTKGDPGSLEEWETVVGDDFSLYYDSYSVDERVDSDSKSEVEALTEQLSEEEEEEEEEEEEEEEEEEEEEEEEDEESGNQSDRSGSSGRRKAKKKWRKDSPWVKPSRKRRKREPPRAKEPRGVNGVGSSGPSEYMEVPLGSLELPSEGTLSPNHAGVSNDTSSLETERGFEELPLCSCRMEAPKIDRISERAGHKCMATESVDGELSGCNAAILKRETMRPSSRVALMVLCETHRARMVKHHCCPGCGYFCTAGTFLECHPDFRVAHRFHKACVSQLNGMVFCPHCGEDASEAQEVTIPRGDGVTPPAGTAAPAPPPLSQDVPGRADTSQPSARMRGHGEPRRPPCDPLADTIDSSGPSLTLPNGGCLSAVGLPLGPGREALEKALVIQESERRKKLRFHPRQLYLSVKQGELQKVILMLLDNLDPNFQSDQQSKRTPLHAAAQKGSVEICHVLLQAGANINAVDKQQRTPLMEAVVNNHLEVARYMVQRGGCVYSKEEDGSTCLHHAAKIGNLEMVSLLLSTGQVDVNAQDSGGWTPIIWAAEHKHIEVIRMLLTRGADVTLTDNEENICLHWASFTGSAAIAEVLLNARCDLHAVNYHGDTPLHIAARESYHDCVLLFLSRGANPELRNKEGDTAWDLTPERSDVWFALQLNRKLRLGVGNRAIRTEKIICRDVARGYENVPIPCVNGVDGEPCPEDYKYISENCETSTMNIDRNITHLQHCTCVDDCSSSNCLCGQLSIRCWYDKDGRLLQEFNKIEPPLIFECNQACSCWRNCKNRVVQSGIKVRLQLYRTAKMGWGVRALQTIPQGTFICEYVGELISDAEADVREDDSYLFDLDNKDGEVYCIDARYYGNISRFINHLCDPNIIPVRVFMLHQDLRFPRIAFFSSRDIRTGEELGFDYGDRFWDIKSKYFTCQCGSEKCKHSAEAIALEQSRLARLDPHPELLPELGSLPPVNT
Compound,"activity, negative = inhibition",Potency
COC(=O)CN(C(=S)Nc1ccccc1)C1CC(=O)N(c2ccc(OC)cc2)C1=O (stereo unspecified),inactive: -1.7% [at 12.7 µM],–
C(=C\c1ccccn1)/c1ccccn1,inactive: 13.3% [at 102 µM],–
Cc1cccc(NC(=O)CSc2nc(=O)n(Cc3cccnc3)c3c2CCC3)c1,–,"inconclusive: 1 µM [inhibitor, partial curve, poor fit]"
CCN(CC(=O)Nc1cc(Cl)ccc1C)C(=O)CCS(=O)(=O)c1ccc(C)cc1,–,active: 50.1 µM
C=CCN(c1ccccc1)S(=O)(=O)c1ccc2c(c1)N(C(C)=O)CCO2,inactive: 3.9% [at 102 µM],–
C=C(C)C(=O)N1CC2(CC(c3cccc(NC(=O)/C=C\C=C/C)c3)=NO2)C[C@H]1C(N)=O (stereo partly specified),–,"inconclusive: 31.6 µM [inhibitor, single point]"
CCOC(=O)c1nnsc1NC(C)=O,inactive: -3.33% [at 102 µM],–
CN(CC(=O)Nc1cccc(F)c1)CC(=O)Nc1cccc(S(=O)(=O)N2CCCCC2)c1,inconclusive: -58.4% [inhibitor] [at 12.7 µM],–
CCN(CC)S(=O)(=O)c1ccc(Cl)c(NC(C)=O)c1,–,"inconclusive: 0.316 µM [inhibitor, full curve, poor fit]"
Cc1cc(SCC(=O)NCc2ccc(F)cc2)nc(=O)[nH]1,inactive: 4.94%,–
CCOc1ccccc1N1CCN(C(=O)C2=CC=CN3CCS(=O)(=O)N=C23)CC1,inactive: 1.49% [at 12.7 µM],–
COc1ccc(NC(=O)c2ccco2)cc1NC(=O)c1ccco1,inactive: 9.29% [at 102 µM],–
COc1ccc(-c2nc3cnc(N4CCNCC4)nc3n(-c3ccc(OC)cc3)c2=O)cc1,inactive: 2.53% [at 0.501 µM],–
Cc1ccc(NC(=O)c2nc(-c3ccncc3)no2)c(Cl)c1,inactive: 9.9%,–
COc1ccc(C2N3CC4(C)CN2CC(c2ccccc2)(C3)C4=O)cc1 (stereo unspecified),inactive: 1.94%,–
O=C1c2ccccc2C(=O)C12Cc1ccccc1N1CCN(c3ccccc3)CC12 (stereo unspecified),–,"inconclusive: 89.1 µM [inhibitor, single point]"
O=C(c1ccc(CS(=O)(=O)c2ccc(Br)cc2)o1)N1CCCCCC1,–,"inconclusive: 50.1 µM [inhibitor, partial curve, poor fit]"
Cc1ccc(C(=O)Nc2cc(-c3ccn[nH]3)c(C)n(N)c2=O)cc1,inactive: -4.7% [at 102 µM],–
N#C[C@H]1[C@H](c2ccccc2)[C@](C#N)(C(=O)c2ccccc2)[C@@H]2C=Cc3ccccc3N21,–,active: 25.1 µM
O=C(COCc1cc(-c2ccco2)on1)Nc1cccc(Cl)c1Cl,–,"inconclusive: 28.2 µM [inhibitor, partial curve, poor fit]"
O=C(O)CCN1C(=O)C2C3CC(C2C1=O)C1C(c2ccccc2)c2sc(=O)[nH]c2SC31 (stereo unspecified),inactive: -19.9% [at 102 µM],–
Cc1cc2ccccc2n1CCNC(=O)c1ccc(S(=O)(=O)N2CCOCC2)cc1,–,"inconclusive: 2.82 µM [inhibitor, partial curve, poor fit]"
COc1ccc(CCNC(=O)CSc2c[nH]c3ccccc23)cc1OC,–,"inconclusive: 89.1 µM [inhibitor, single point]"

Compound,"activity, negative = inhibition",Potency
O=C(CSc1nnc2c(n1)[nH]c1ccccc12)Nc1cccc(S(=O)(=O)N2CCOCC2)c1,–,"inconclusive: 3.16 µM [inhibitor, single point]"
C/C(CCc1oc2ccccc2c1-c1ccc(C)o1)=N/O,inconclusive: -82.4% [inhibitor],–
CCCCNC(=O)c1cc(-c2ccc(OC)cc2)on1,–,"inconclusive: 0.501 µM [inhibitor, partial curve, poor fit]"
O=C(CNC(=O)c1nc[nH]c1C(=O)N1CCN(c2ccccc2)CC1)OCc1ccccc1,–,"inconclusive: 79.4 µM [inhibitor, single point]"
COc1ccccc1C(=O)NCc1n[nH]c(=S)n1Cc1ccccc1,–,"inconclusive: 8.91 µM [inhibitor, full curve, poor fit]"
O=C(Nc1cccnc1)c1ccc(Cl)c([N+](=O)[O-])c1,–,"inconclusive: 56.2 µM [inhibitor, partial curve]"
CN1c2ccsc2/C(=N/NC(=O)c2c(F)cccc2F)CS1(=O)=O,inactive: 45%,–
CC(OC(=O)c1cc[n+]([O-])cc1)C(=O)Nc1ccc(Cl)cn1 (stereo unspecified),–,"inconclusive: 89.1 µM [inhibitor, partial curve, poor fit]"
CCOc1ccc2nc(NC(=O)Cn3c(C)csc3=O)sc2c1,–,active: 39.8 µM
O=C(COc1ccc(Cl)cc1)NCc1nnc(SCC(=O)Nc2ccccc2F)o1,inactive: -2.3%,–
Cc1[nH]c(C(=O)O)c(C)c1C(=O)OC(C)C,inactive: -21.8% [at 102 µM],–
CC1CCCCC1NC(=O)c1cc2ccccc2o1 (stereo unspecified),–,"inconclusive: 15.8 µM [inhibitor, single point]"
O=[N+]([O-])c1ccc(C=Nc2ccc(Cl)cc2Cl)s1,–,"inconclusive: 39.8 µM [inhibitor, single point]"
COC(=O)c1sc(NC(=O)/C=C/c2ccc(C)o2)nc1C,–,"inconclusive: 39.8 µM [inhibitor, single point]"
O=C(CSc1nnc2scc(-c3ccc(Cl)cc3)n12)NCc1ccco1,inactive: 26.3%,–
O=S(=O)(NCC(c1ccco1)N1CCN(c2ccccc2)CC1)c1ccc(F)cc1 (stereo unspecified),–,"inconclusive: 44.7 µM [inhibitor, partial curve, poor fit]"
CCCNC(=O)CS(=O)Cc1nc(-c2cccc(OC)c2)oc1C (stereo unspecified),–,"inconclusive: 100 µM [inhibitor, single point]"
CCc1cccc(NC(=O)CCN2C(=O)c3ccccc3Sc3ncccc32)c1,inactive: -14.2%,–
Cc1cn(C2CCC(CO)O2)c(=O)[nH]c1=O (stereo unspecified),inactive: 25% [at 102 µM],–
O=C1/C(=C/c2ccc(C(=O)O)cc2)CCC/C1=C\c1ccc(C(=O)O)cc1,inactive: -44.3%,–
COc1ccc(-c2cc3nc(C)c(CCC(=O)NC(C)CCc4ccco4)c(C)n3n2)c(OC)c1 (stereo unspecified),–,"inconclusive: 100 µM [inhibitor, single point]"
O=C(CSc1n[nH]c(-c2ccncc2)n1)Nc1ccccc1Cl,–,active: 50.1 µM
Cc1sc2ncnc(OCC(=O)c3ccc(S(=O)(=O)N4CCCC4)cc3)c2c1C,–,"inconclusive: 89.1 µM [inhibitor, partial curve, poor fit]"
